# Measured values reported in the supplement of paper PMC8728848.
# This is one part of the list.
# B1: Gal 1 (Mus musculus), P16045 (protein)
# chain: MACGLVASNLNLKPGECLKVRGEVASDAKSFVLNLGKDSNNLCLHFNPRFNAHGDANTIVCNTKEDGTWGTEHREPAFPFQPGSITEVCITFDQADLTIKLPDGHEFKFPNRLNMEAINYMAADGDFKIKCVAFE
# Assays:
# Experiment in all cases: glycan array binding signal (z-score within array); higher = stronger binding
# Details in all cases: glycan notation: IUPAC condensed, linker removed
# [1] = biological target: Gal(b1-3)GlcNAc(b1-3)Gal(b1-4)GlcNAc(b1-2)[Gal(b1-3)GlcNAc(b1-3)Gal(b1-4)GlcNAc(b1-6)]Man(a1-6)[Gal(b1-3)GlcNAc(b1-3)Gal(b1-4)GlcNAc(b1-2)Man(a1-3)]Man(b1-4)GlcNAc(b1-4)[Fuc(a1-6)]GlcNAc
# How it was run: (§1)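 Glycan array data came from 3228 arrays in the Consortium for Functional Glycomics database, and only arrays with an available protein sequence were kept. Glycan names were put into IUPAC-condensed notation, and columns mapping to the same glycan were averaged. The binding signal is a within-array Z-score, averaged across arrays of one protein sequence run at different concentrations or buffers and across linkers. A negative Z-score can be read as non-binding.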
# [2] = biological target: Gal(b1-3)GlcNAc(b1-3)Gal(b1-4)GlcNAc(b1-3)Gal(b1-4)GlcNAc(b1-2)[Gal(b1-3)GlcNAc(b1-3)Gal(b1-4)GlcNAc(b1-3)Gal(b1-4)GlcNAc(b1-6)]Man(a1-6)[Gal(b1-3)GlcNAc(b1-3)Gal(b1-4)GlcNAc(b1-3)Gal(b1-4)GlcNAc(b1-2)Man(a1-3)]Man(b1-4)GlcNAc(b1-4)[Fuc(a1-6)]GlcNAc
# How it was run: as §1
# [3] = biological target: Gal(b1-3)GlcNAc(b1-3)Gal(b1-4)GlcNAc(b1-6)[Gal(b1-3)GlcNAc(b1-3)]Gal(b1-4)Glc
# How it was run: as §1
# [4] = biological target: Gal(b1-3)GlcNAc(b1-3)Gal(b1-4)[Fuc(a1-3)]GlcNAc
# How it was run: as §1
# [5] = biological target: Gal(b1-3)GlcNAc(b1-3)Gal(b1-4)[Fuc(a1-3)]GlcNAc(b1-6)[Gal(b1-3)GlcNAc(b1-3)]Gal(b1-4)Glc
# How it was run: as §1
# [6] = biological target: Gal(b1-3)GlcNAc(b1-3)GalNAc
# How it was run: as §1
# [7] = biological target: Gal(b1-3)GlcNAc(b1-6)Gal(b1-4)GlcNAc
# How it was run: as §1
# [8] = biological target: Gal(b1-3)GlcNAc(b1-6)GalNAc
# How it was run: as §1
# [9] = biological target: Gal(b1-3)GlcNAc(b1-6)[Gal(b1-3)]GalNAc
# How it was run: as §1
# Gal(b1-3)GlcNAc6S = biological target: Gal(b1-3)GlcNAc6S
# How it was run: as §1
# [10] = biological target: Gal(b1-3)[Fuc(a1-4)]GlcNAc
# How it was run: as §1
# [11] = biological target: Gal(b1-3)[Fuc(a1-4)]GlcNAc(b1-2)Man
# How it was run: as §1
# [12] = biological target: Gal(b1-3)[Fuc(a1-4)]GlcNAc(b1-2)Man(a1-3)[Gal(b1-3)[Fuc(a1-4)]GlcNAc(b1-2)Man(a1-6)]Man(b1-4)GlcNAc(b1-4)GlcNAc
# How it was run: as §1
# [13] = biological target: Gal(b1-3)[Fuc(a1-4)]GlcNAc(b1-2)Man(a1-3)[Gal(b1-3)[Fuc(a1-4)]GlcNAc(b1-2)Man(a1-6)]Man(b1-4)GlcNAc(b1-4)[Fuc(a1-6)]GlcNAc
# How it was run: as §1
# [14] = biological target: Gal(b1-3)[Fuc(a1-4)]GlcNAc(b1-3)Gal(b1-3)[Fuc(a1-4)]GlcNAc
# How it was run: as §1
# [15] = biological target: Gal(b1-3)[Fuc(a1-4)]GlcNAc(b1-3)Gal(b1-4)GlcNAc
# How it was run: as §1
# [16] = biological target: Gal(b1-3)[Fuc(a1-4)]GlcNAc(b1-3)Gal(b1-4)[Fuc(a1-3)]GlcNAc
# How it was run: as §1
# [17] = biological target: Gal(b1-3)[Fuc(a1-4)]GlcNAc(b1-6)GalNAc
# How it was run: as §1
# [18] = biological target: Gal(b1-3)[GlcNAc(b1-6)]GalNAc
# How it was run: as §1
# [19] = biological target: Gal(b1-3)[Neu5Ac(a2-6)]GalNAc
# How it was run: as §1
# [20] = biological target: Gal(b1-3)[Neu5Ac(a2-6)]GlcNAc(b1-4)Gal(b1-4)Glc
# How it was run: as §1
# [21] = biological target: Gal(b1-3)[Neu5Ac(a2-6)]GlcNAc(b1-6)Gal(b1-4)Glc
# How it was run: as §1
# [22] = biological target: Gal(b1-3)[Neu5Ac(b2-6)]GalNAc
# How it was run: as §1
# Gal(b1-4)Gal = biological target: Gal(b1-4)Gal
# How it was run: as §1
# [23] = biological target: Gal(b1-4)GalNAc(a1-3)[Fuc(a1-2)]Gal(b1-4)GlcNAc
# How it was run: as §1
# [24] = biological target: Gal(b1-4)GalNAc(b1-3)[Fuc(a1-2)]Gal(b1-4)GlcNAc
# How it was run: as §1
# Gal(b1-4)Glc = biological target: Gal(b1-4)Glc
# How it was run: as §1
# Gal(b1-4)Glc6S = biological target: Gal(b1-4)Glc6S
# How it was run: as §1
# Gal(b1-4)GlcNAc = biological target: Gal(b1-4)GlcNAc
# How it was run: as §1
# [25] = biological target: Gal(b1-4)GlcNAc(a1-6)Gal(b1-4)GlcNAc
# How it was run: as §1
# Gal(b1-4)GlcNAc(b1-2)Man = biological target: Gal(b1-4)GlcNAc(b1-2)Man
# How it was run: as §1
# [26] = biological target: Gal(b1-4)GlcNAc(b1-2)Man(a1-3)Man(b1-4)GlcNAc(b1-4)GlcNAc
# How it was run: as §1
# [27] = biological target: Gal(b1-4)GlcNAc(b1-2)Man(a1-3)[Gal(b1-4)GlcNAc(b1-2)Man(a1-6)]Man(b1-4)GlcNAc(b1-4)GlcNAc
# How it was run: as §1
# [28] = biological target: Gal(b1-4)GlcNAc(b1-2)Man(a1-3)[Gal(b1-4)GlcNAc(b1-2)Man(a1-6)]Man(b1-4)GlcNAc(b1-4)[Fuc(a1-6)]GlcNAc
# How it was run: as §1
# [29] = biological target: Gal(b1-4)GlcNAc(b1-2)Man(a1-3)[Gal(b1-4)GlcNAc(b1-2)Man(a1-6)][Gal(b1-4)GlcNAc(b1-4)]Man(b1-4)GlcNAc(b1-4)[Fuc(a1-6)]GlcNAc
# How it was run: as §1
# [30] = biological target: Gal(b1-4)GlcNAc(b1-2)Man(a1-3)[Gal(b1-4)GlcNAc(b1-2)Man(a1-6)][GlcNAc(b1-4)]Man(b1-4)GlcNAc(b1-4)[Fuc(a1-6)]GlcNAc
# How it was run: as §1
# [31] = biological target: Gal(b1-4)GlcNAc(b1-2)Man(a1-3)[Gal(b1-4)GlcNAc(b1-2)][GlcNAc(b1-4)]Man(b1-4)GlcNAc(b1-4)GlcNAc
# How it was run: as §1
# [32] = biological target: Gal(b1-4)GlcNAc(b1-2)Man(a1-3)[GlcNAc(b1-2)Man(a1-6)]Man(b1-4)GlcNAc(b1-4)GlcNAc
# How it was run: as §1
# [33] = biological target: Gal(b1-4)GlcNAc(b1-2)Man(a1-3)[GlcNAc(b1-4)][Gal(b1-4)GlcNAc(b1-2)Man(a1-6)]Man(b1-4)GlcNAc(b1-4)GlcNAc
# How it was run: as §1
# [34] = biological target: Gal(b1-4)GlcNAc(b1-2)Man(a1-3)[Man(a1-6)]Man(b1-4)GlcNAc(b1-4)GlcNAc
# How it was run: as §1
# [35] = biological target: Gal(b1-4)GlcNAc(b1-2)Man(a1-6)Man(b1-4)GlcNAc(b1-4)GlcNAc
# How it was run: as §1
# [36] = biological target: Gal(b1-4)GlcNAc(b1-2)Man(a1-6)[GlcNAc(b1-2)Man(a1-3)]Man(b1-4)GlcNAc(b1-4)GlcNAc
# How it was run: as §1
# [37] = biological target: Gal(b1-4)GlcNAc(b1-2)Man(a1-6)[Man(a1-3)]Man(b1-4)GlcNAc(b1-4)GlcNAc
# How it was run: as §1
# [38] = biological target: Gal(b1-4)GlcNAc(b1-2)[Gal(b1-4)GlcNAc(b1-4)]Man(a1-3)[Gal(b1-4)GlcNAc(b1-2)Man(a1-6)]Man(b1-4)GlcNAc(b1-4)GlcNAc
# How it was run: as §1
# [39] = biological target: Gal(b1-4)GlcNAc(b1-2)[Gal(b1-4)GlcNAc(b1-4)]Man(a1-3)[Gal(b1-4)GlcNAc(b1-2)[Gal(b1-4)GlcNAc(b1-6)]Man(a1-6)]Man(b1-4)GlcNAc(b1-4)GlcNAc
# How it was run: as §1
binder,measurement,setting,value
B1,glycan array binding signal (z-score),[1],1.34
same,glycan array binding signal (z-score),[2],2.97
same,glycan array binding signal (z-score),[3],0.473
same,glycan array binding signal (z-score),[4],-0.155
same,glycan array binding signal (z-score),[5],0.229
same,glycan array binding signal (z-score),[6],-0.323
same,glycan array binding signal (z-score),[7],-0.26
same,glycan array binding signal (z-score),[8],-0.229
same,glycan array binding signal (z-score),[9],-0.257
same,glycan array binding signal (z-score),Gal(b1-3)GlcNAc6S,-0.424
same,glycan array binding signal (z-score),[10],-0.152
same,glycan array binding signal (z-score),[11],-0.166
same,glycan array binding signal (z-score),[12],0.394
same,glycan array binding signal (z-score),[13],0.04
same,glycan array binding signal (z-score),[14],-0.221
same,glycan array binding signal (z-score),[15],-0.032
same,glycan array binding signal (z-score),[16],-0.252
same,glycan array binding signal (z-score),[17],-0.174
same,glycan array binding signal (z-score),[18],-0.31
same,glycan array binding signal (z-score),[19],-0.237
same,glycan array binding signal (z-score),[20],-0.394
same,glycan array binding signal (z-score),[21],-0.078
same,glycan array binding signal (z-score),[22],-0.295
same,glycan array binding signal (z-score),Gal(b1-4)Gal,-0.351
same,glycan array binding signal (z-score),[23],-0.346
same,glycan array binding signal (z-score),[24],-0.459
same,glycan array binding signal (z-score),Gal(b1-4)Glc,-0.103
same,glycan array binding signal (z-score),Gal(b1-4)Glc6S,-0.209
same,glycan array binding signal (z-score),Gal(b1-4)GlcNAc,-0.328
same,glycan array binding signal (z-score),[25],0.744
same,glycan array binding signal (z-score),Gal(b1-4)GlcNAc(b1-2)Man,-0.253
same,glycan array binding signal (z-score),[26],0.04
same,glycan array binding signal (z-score),[27],0.982
same,glycan array binding signal (z-score),[28],0.146
same,glycan array binding signal (z-score),[29],0.539
same,glycan array binding signal (z-score),[30],0.11
same,glycan array binding signal (z-score),[31],-0.159
same,glycan array binding signal (z-score),[32],-0.062
same,glycan array binding signal (z-score),[33],0.031
same,glycan array binding signal (z-score),[34],0.103
same,glycan array binding signal (z-score),[35],0.083
same,glycan array binding signal (z-score),[36],0.054
same,glycan array binding signal (z-score),[37],-0.163
same,glycan array binding signal (z-score),[38],1.23
same,glycan array binding signal (z-score),[39],2.09
